Laboratory results as given in PubChem BioAssay AID488969 (Vanderbilt High Throughput Screening Facility, 2010).
Over roughly 110,000 compounds, “z-score” has its median near -0.1; the highest 2% begin near 2. Some of the results follow. The source made the active and inactive calls.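 Rule for the calls: active = z-score in the third read window above 3 or below -3; inactive = the rest.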

Molecular target: Metabotropic glutamate receptor 8 (Rattus norvegicus) (UniProt P70579)
Experiment: rat mGluR8 modulators via GIRK flux, primary screen, cell-based, thallium flux, HTS (AID 488969)
Conditions: HEK293 rat mGluR8, GIRK (G protein-gated inwardly rectifying potassium channel) thallium flux, FluoZin2; at 10 µM; stronger effect = higher value; submaximal glutamate (EC20) added with thallium

UniProt P70579, sequence (P70579 whole entry, looked up): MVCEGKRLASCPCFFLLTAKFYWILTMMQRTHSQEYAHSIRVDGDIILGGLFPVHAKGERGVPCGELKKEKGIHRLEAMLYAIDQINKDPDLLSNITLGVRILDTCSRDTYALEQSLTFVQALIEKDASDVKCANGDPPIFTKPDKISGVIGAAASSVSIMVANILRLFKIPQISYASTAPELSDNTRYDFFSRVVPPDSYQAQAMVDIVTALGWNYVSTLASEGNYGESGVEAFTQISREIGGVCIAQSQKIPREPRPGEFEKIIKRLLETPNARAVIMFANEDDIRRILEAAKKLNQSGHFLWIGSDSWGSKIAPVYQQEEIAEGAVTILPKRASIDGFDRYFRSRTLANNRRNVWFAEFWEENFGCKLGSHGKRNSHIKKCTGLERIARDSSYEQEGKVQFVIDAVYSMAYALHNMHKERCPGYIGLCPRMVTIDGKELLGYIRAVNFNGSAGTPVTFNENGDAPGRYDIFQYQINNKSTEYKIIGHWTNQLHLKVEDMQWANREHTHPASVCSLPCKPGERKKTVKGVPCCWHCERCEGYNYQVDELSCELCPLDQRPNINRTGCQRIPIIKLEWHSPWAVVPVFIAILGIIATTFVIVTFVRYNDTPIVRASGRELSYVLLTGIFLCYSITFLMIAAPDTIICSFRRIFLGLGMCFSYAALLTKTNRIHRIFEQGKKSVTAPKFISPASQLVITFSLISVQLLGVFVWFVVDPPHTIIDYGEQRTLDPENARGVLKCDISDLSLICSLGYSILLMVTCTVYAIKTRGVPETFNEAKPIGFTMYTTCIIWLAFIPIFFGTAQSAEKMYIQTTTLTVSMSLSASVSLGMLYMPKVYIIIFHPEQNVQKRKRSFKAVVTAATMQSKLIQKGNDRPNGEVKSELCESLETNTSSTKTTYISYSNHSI

Q: With `CC(=O)N(c1ccc(Br)cc1)C1C=CS(=O)(=O)C1` (centres undefined) as the compound, how does the z-score read?
A: 0.218

Q: How did the z-score turn out when `Cc1cccc(NC(=O)N(Cc2nc3ccccc3c(=O)[nH]2)C2CCCC2)c1` was run?
A: 2.35

Q: For `N#Cc1ccccc1CSc1ccc(-c2nc3ccccc3[nH]2)cn1`, which z-score is on record?
A: -0.154

Q: For `O=C(CCN1CCN(c2ccccc2)CC1)Nc1ccc(OCc2ccccc2)cc1`, which z-score is on record?
A: -0.117

Q: How did the z-score turn out when `CCOC(=O)C1=NN(c2ccc(F)cc2)C2=NC(C)=C(C(=O)OC)C(c3cccs3)N12` (centres undefined) was run?
A: -0.0892

Q: Which z-score does the source give for `Cc1c(N2C(=O)CS/C2=N\N=C\c2ccccc2O)c(=O)n(-c2ccccc2)n1C` here?
A: active: 3.28

Q: With `Cc1ccc(NC(=O)COC(=O)c2ccc(OCc3c(C)noc3C)cc2)cc1S(=O)(=O)N1CCOCC1` as the compound, how does the z-score read?
A: -1.34

Q: Which z-score does the source give for `COc1ccccc1NC(=S)NC(=O)C1CC1` here?
A: -0.133

Q: `CC(=O)Nc1ccc(S(=O)(=O)NC2(C(F)(F)F)NC(=O)N(c3ccc(Cl)cc3)C2=O)cc1` (centres undefined) was tested. Which z-score did it give?
A: -0.0337

Q: For `S=C(NCCSCc1ccccc1Cl)Nc1ccccc1`, which z-score is on record?
A: 0.36

Q: With `O=C(Nc1ccc(Br)cn1)c1ccc2nccnc2c1` as the compound, how does the z-score read?
A: 0.228

Q: With `CCc1ccc(-c2nc(NC(=S)NC(=O)c3cccs3)sc2C)cc1` as the compound, how does the z-score read?
A: 0.595

Q: Which z-score does the source give for `CCCn1cnc2sc(C(N)=O)c(C)c2c1=O` here?
A: -0.0708

Q: How did the z-score turn out when `Cc1cccc(/C=N\NC(=O)c2csnn2)c1` was run?
A: -0.116

Q: `CCOC(=O)C1=C(C)Nc2nc(=S)[nH]n2C1c1ccc(Cl)cc1` (centres undefined) was tested. Which z-score did it give?
A: -0.454

Q: How did the z-score turn out when `CCOC(=O)c1ccc(NC(=O)COC(=O)Cc2csc(-c3ccccc3)n2)cc1` was run?
A: -0.252

Q: How did the z-score turn out when `COc1ccc(C2N(c3ccc(F)cc3)C(=O)C3CCCN32)cc1` (centres undefined) was run?
A: 0.719

Q: With `CCN1/C(=C2\C(=O)N(C)C(=S)N2C)C=Cc2cc(OC)ccc21` as the compound, how does the z-score read?
A: -0.193

Q: How did the z-score turn out when `CN1CCN(NS(=O)(=O)c2ccc(Cl)s2)CC1` was run?
A: -0.145

Q: How did the z-score turn out when `CCC(C)(C)n1nnnc1C(c1ccccc1OC)N1CCSCC1` (centres undefined) was run?
A: 0.0085

Q: For `CCN1CCN(c2cc(C)c3cc(NC(=O)c4ccc(Br)o4)ccc3n2)CC1`, which z-score is on record?
A: active: 3.44

Q: How did the z-score turn out when `COc1cc(/C=N\NC(=O)CNC(=O)C2COc3ccccc3O2)ccc1O` (centres undefined) was run?
A: -0.838

Q: With `COc1cccc(NC(=O)CSc2nnc(Cc3cccs3)n2-c2ccc(C)cc2)c1` as the compound, how does the z-score read?
A: -0.673

Q: Which z-score does the source give for `O=C(Nc1ccccc1Cc1ccccc1)C1CC(=O)N(c2ccc3c(c2)OCCO3)C1` (centres undefined) here?
A: -0.153

Q: Which z-score does the source give for `Cc1ccc(-n2sc3ccccc3c2=O)cc1` here?
A: -0.306

Q: With `COc1nnc(-c2ccc(N3CCOCC3)c(NC(=O)c3ccco3)c2)c2ccccc12` as the compound, how does the z-score read?
A: -2.65

Q: With `CCCOc1ccc(N2C(=O)CC(NCc3cccs3)C2=O)cc1` (centres undefined) as the compound, how does the z-score read?
A: 0.967

Q: Which z-score does the source give for `O=C(Oc1ccc(Cl)cc1)c1ccc2nccnc2c1` here?
A: -0.0816

Q: For `CCOC(=O)C1=C(C)NC(SCC(=O)Nc2nc(C)cs2)=C(C#N)C1c1cccs1` (centres undefined), which z-score is on record?
A: -0.832

Q: For `COc1ccc(N(CC(=O)O)S(=O)(=O)c2ccc(OC)c(OC)c2)cc1`, which z-score is on record?
A: 0.0339

Q: For `CCOC(=O)NC(=O)CSc1nc(-c2ccc(C)c(C)c2)cn1-c1ccccc1`, which z-score is on record?
A: 1.15

Q: With `FC(F)(F)c1ccc(CN2CCCCCC2)cc1` as the compound, how does the z-score read?
A: 0.053

Q: With `CCN(/N=C/c1ccc(Cl)cc1)c1cc(=O)n(C)c(=O)[nH]1` as the compound, how does the z-score read?
A: -0.289

Q: For `CC1(C)CC2CC(C)(CN2C(=O)Cc2ccccc2)C1` (centres undefined), which z-score is on record?
A: -0.0313

Q: Which z-score does the source give for `O=C(CSc1ncnc2ccccc12)NCc1ccco1` here?
A: 0.0729

Q: How did the z-score turn out when `O=C(c1ccccc1)N1CCCC(C(=O)N2CCCCCC2)C1` (centres undefined) was run?
A: 0.478

Q: With `Cc1ccc(N(CC(=O)N/N=C/c2ccco2)S(=O)(=O)c2ccccc2)cc1` as the compound, how does the z-score read?
A: -0.0917

Q: With `O=C(CSc1nnc(COc2cccc3ccccc23)o1)N1c2ccccc2CCc2ccccc21` as the compound, how does the z-score read?
A: 1.22

Q: Which z-score does the source give for `COc1ccc(C2=NN3C(C2)c2ccccc2OC32C(=O)N(C)c3ccccc32)cc1` (centres undefined) here?
A: -0.118

Q: With `O=C(NCc1ccccc1)c1cccc(COc2cc(Cl)ccc2Cl)c1` as the compound, how does the z-score read?
A: -0.278

Q: How did the z-score turn out when `COc1ccc(NC(=O)CN(Cc2ccccc2)S(C)(=O)=O)c(OC)c1` was run?
A: -0.052

Q: For `Cc1ccc(N2C(N)=C(C#N)C3(C(=O)N(C)c4ccccc43)C3=C2CC(C)(C)CC3=O)cc1Cl` (centres undefined), which z-score is on record?
A: -2.04

Q: Which z-score does the source give for `COc1cccc(C2=Nc3cccc4cccc(c34)N2)c1` here?
A: -0.506

Q: `CON1C(=O)C(=O)N(OC)C(C)(C)C1(C)C` was tested. Which z-score did it give?
A: -0.132

Q: `COc1cc(Cl)c(C)cc1NC(=O)CCCn1c(=O)oc2ccccc21` was tested. Which z-score did it give?
A: -0.249

Q: For `c1ccc(C2CC(c3cccs3)n3nnnc3N2)cc1` (centres undefined), which z-score is on record?
A: -0.646

Q: For `COc1ccccc1N1CCN(C(=O)CSc2nc3ncnc(N)c3[nH]2)CC1`, which z-score is on record?
A: -1.12

Q: Which z-score does the source give for `CCc1cc2c(-n3nc(C)cc3C)ncnc2s1` here?
A: 0.0531

Q: `CN(CC(=O)O/N=C(\N)c1ccc([N+](=O)[O-])cc1)S(=O)(=O)c1ccccc1` was tested. Which z-score did it give?
A: -0.0101

Q: With `CS(=O)(=O)N(CC(=O)N1CCCC1)c1cccc(Cl)c1Cl` as the compound, how does the z-score read?
A: -1.92

Q: For `COC(=O)c1[nH]c2cc(OC)ccc2c1NC(=O)c1nonc1C`, which z-score is on record?
A: 0.0286

Q: With `COc1cc(C2C(C(=O)N3CCOCC3)=C(C)NC3=C2C(=O)CCC3)ccc1OC(C)=O` (centres undefined) as the compound, how does the z-score read?
A: 0.401

Q: `CN1CC(=O)NC1=NC(=O)C12CC3CC(CC(C3)C1)C2` was tested. Which z-score did it give?
A: 0.29

Q: For `CCCCc1nnc(NC(=O)CSc2nc(=O)cc(N)n2-c2ccccc2)s1`, which z-score is on record?
A: 0.266
